# Results published in the supplement of paper PMC3334620.
# The full ranking holds about 33,000 sequences; the median of “E-score (-0.5 to 0.5)” is about -0.032, and the highest 2% start at about 0.36. Some of the results follow.
# Target: T1, Sko1 (UniProt Q02100)
# T1 sequence: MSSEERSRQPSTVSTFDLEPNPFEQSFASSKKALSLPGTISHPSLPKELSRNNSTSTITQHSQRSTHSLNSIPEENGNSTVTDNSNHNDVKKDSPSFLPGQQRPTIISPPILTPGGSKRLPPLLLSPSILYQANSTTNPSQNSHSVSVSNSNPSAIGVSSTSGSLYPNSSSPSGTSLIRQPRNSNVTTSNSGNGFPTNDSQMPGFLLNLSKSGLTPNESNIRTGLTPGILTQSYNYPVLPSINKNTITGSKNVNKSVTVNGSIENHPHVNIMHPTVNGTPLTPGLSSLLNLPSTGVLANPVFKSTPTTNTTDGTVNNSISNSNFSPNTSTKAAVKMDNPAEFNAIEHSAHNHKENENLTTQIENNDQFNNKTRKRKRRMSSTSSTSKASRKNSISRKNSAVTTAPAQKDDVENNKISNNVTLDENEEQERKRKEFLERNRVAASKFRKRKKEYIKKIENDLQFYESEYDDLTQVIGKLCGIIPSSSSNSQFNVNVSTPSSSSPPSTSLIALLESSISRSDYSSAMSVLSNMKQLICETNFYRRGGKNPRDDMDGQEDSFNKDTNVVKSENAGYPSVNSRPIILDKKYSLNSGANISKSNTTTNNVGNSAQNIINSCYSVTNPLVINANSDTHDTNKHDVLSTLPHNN
# Assay: PBM E-score (8-mer binding enrichment) (E-score (-0.5 to 0.5)); higher = stronger / more preferred TF binding; most listed sequences are background and not binding sites
# Conditions: protein concentration: 200 nM; construct: GST-full length
# In short: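 Masliner-normalised scans of fluorescent anti-GST signal were the basis for scoring. That signal came from GST-tagged yeast transcription factors applied at about 100-200 nM to double-stranded universal all-10-mer Agilent arrays on fresh or once-stripped slides. Each ungapped eight-base word, pooled with its reverse complement, received an E-score from the Universal PBM Analysis Suite.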
row,Sequence,PBM E-score
1,CCGACTTA,-0.0229
2,AGCAGGAG,-0.268
3,ATTGTGTA,0.302
4,AGAGTCAG,-0.121
5,AACCTAAA,0.172
6,AGATGATA,0.215
7,CACACTTC,0.0732
8,CCCGTCAA,-0.0876
9,CATTGCCG,-0.134
10,AGTAGACA,0.0699
11,GAAGCCAC,-0.0963
12,GAAGCAGA,-0.0531
13,AAACAGCT,-0.0726
14,GATGAATA,0.239
15,AGGTACGA,0.053
16,TAGAGCCA,-0.278
17,CATGAGTC,0.122
18,AATGAATC,-0.0655
19,CACTTCTG,-0.0181
20,CACTAATC,-0.097
21,AGCTGCTA,-0.0523
22,GCTACGAC,0.0459
23,CATTTTTA,0.0589
24,CAGCGCGC,-0.234
25,AACGACTC,-0.129

row,Sequence,PBM E-score
1,ACCGGCAG,-0.357
2,CTGGAAAC,0.162
3,GCTACACA,-0.0795
4,CTACATTC,-0.116
5,GGAAAACC,-0.128
6,GCCCGTCA,-0.00134
7,ATTGGGAA,-0.0523
8,CTATTCCC,-0.282
9,GACGTTCA,0.187
10,GCGGCCCA,-0.33
11,TGCTTTAA,0.0254
12,AATCCTGA,0.0387
13,CATGTTCA,-0.136
14,CCCTTACA,-0.174
15,CCGAGTGC,-0.279
16,CACGAATC,0.12
17,CGTATACA,0.372
18,ATTAGTAA,0.182
19,GAGCCCTA,-0.272
20,ATCGTTCG,-0.0266
21,GTTCTTGA,0.0936
22,CATCCATC,-0.238
23,GCGTCGAC,0.0596
24,CTCGAACC,-0.216
25,CACAGGAG,-0.071

row,Sequence,PBM E-score
1,CTGTGTGC,0.00517
2,CGCTACGA,0.122
3,CGTGCCCC,-0.0366
4,TAACAGTA,0.126
5,ACGTTACT,0.334
6,CATTGTCG,0.0277
7,AACACAAA,0.0722
8,TCAAAGCA,0.0567
9,ACAGTCAA,-0.0134
10,GCGAGCTA,0.032
11,AGAGTAAA,0.155
12,GGACGCAA,0.164
13,ATAGTAAC,0.0331
14,ATGCGTCC,-0.124
15,CAGGCTAG,-0.353
16,ACGCACGA,0.295
17,CTGTGAAA,0.135
18,ATAGTTCG,0.0481
19,AAATTCCT,-0.126
20,CGTGTCAG,0.184
21,CCTCCAGC,-0.349
22,ATATACAT,0.236
23,GAAACTAC,0.227
24,CATTGTAG,-0.0326
25,CTTGTTCC,-0.0407

row,Sequence,PBM E-score
1,AGGTATTG,0.114
2,ACGACCTC,0.0397
3,ATTGTTTA,0.193
4,GAACACTA,0.0303
5,GCACAGAA,-0.0251
6,CCGGAGTA,-0.22
7,CTGCGTTC,-0.0898
8,CATACCAA,0.143
9,AGACGATC,-0.191
10,ACTGGGAC,-0.144
11,AACAACGT,0.316
12,GCACAGCA,-0.0488
13,CCCGCGGG,-0.109
14,ATCGTCTG,-0.0361
15,GGACCGTA,-0.236
16,ACGTGCCA,0.396
17,GGCGGCCA,-0.211
18,TATACTAA,0.0782
19,ATATTCGG,0.0091
20,ATTTACGC,0.281
21,GCTTGCTA,-0.191
22,AGTTGAGA,-0.0321
23,AAGTTTCA,0.122
24,CGCACACA,0.1
25,GGCGCCAA,-0.179

row,Sequence,PBM E-score
1,CGTCAGTC,0.375
2,ACCGAGTC,-0.188
3,ACCGACAG,-0.182
4,CCCGACCC,-0.281
5,ACTATATA,0.303
6,CTGATAAA,0.123
7,GATAGCCA,-0.152
8,AGGCCCAG,-0.158
9,CATGCTAC,-0.114
10,CCGTGCTC,-0.252
11,CCTCGTCC,-0.209
12,GGTATGAC,0.183
13,ATATGTTC,0.024
14,CCTCTGAA,-0.216
15,ATAATCAC,0.219
16,TTACAAAA,0.155
17,GGCCCAGA,-0.342
18,AAGCCGAT,-0.013
19,CCCCGGGA,-0.363
20,AGAAGATC,-0.0987
21,CCTGCGGC,-0.427
22,AAACCACC,-0.234
23,ACTACCCA,0.0746
24,AGCAACAT,0.0691
25,CCGAGCTC,-0.217

row,Sequence,PBM E-score
1,CCAGTGCA,-0.146
2,AGGTCATA,0.21
3,ACATAAAT,0.26
4,GGACTAAC,-0.161
5,CAGTCGAG,-0.129
6,AAAGAATG,0.157
7,GACCTGGA,-0.3
8,AACCTCCT,-0.189
9,AGCCTAAC,-0.0471
10,GCCCCACC,-0.158
11,CAATCCGA,0.0951
12,AGTGGCCC,-0.141
13,ACCAAAAC,0.0565
14,TAACACTA,0.235
15,ACCGGGAG,-0.38
16,ATGTCTCC,-0.0523
17,AGGACCGG,-0.319
18,GGACCGGA,-0.365
19,CGTGAAGA,0.122
20,CTGGACGC,-0.0447
21,GAATATCA,-0.00231
22,CCTTCTTA,-0.132
23,GGCAGCCA,-0.314
24,CACAACCG,0.0241
25,ATAAGATC,0.0257

row,Sequence,PBM E-score
1,CAGATCCC,-0.264
2,ATGTGGAC,-0.174
3,CTACTTGA,0.0167
4,ATGGACGA,0.201
5,GCTCTAGA,-0.381
6,TCGACCAA,-0.00288
7,GTGGCGTA,0.325
8,TATTCCAA,0.123
9,CTGTTACC,-0.0257
10,GCGTAGAC,0.0511
11,ATGTTGTG,0.186
12,ACCGGCGC,-0.0852
13,ACCGCCAA,-0.114
14,CATTCTTA,0.162
15,AGGAACTG,-0.208
16,CGCCAAAA,0.0404
17,ACTTCGAC,0.0743
18,CATGCTGG,-0.168
19,CTCTGATC,0.0207
20,ATCCAAGA,0.0207
21,GTGGAATA,0.0555
22,ACTCCGCG,-0.107
23,GACGAGCA,0.0719
24,ACGACAGA,0.108
25,TGAGATAA,0.197

row,Sequence,PBM E-score
1,CGCTCAGA,0.0013
2,CCTTCGGA,-0.197
3,AGCGCATA,0.0654
4,AACTGCCA,-0.184
5,CTTAGGTC,0.0974
6,AGCATACG,0.3
7,ATCCCACG,0.079
8,CCTATAGC,-0.106
9,CTAATATC,0.163
10,GCCAGATA,-0.0254
11,CCGTCAGC,-0.127
12,ACCATCAA,0.0462
13,CTCACTAA,0.118
14,GCACAGTA,0.0858
15,CGACTTTC,0.0167
16,CATGGGAC,-0.0758
17,GCAGGGCC,-0.219
18,AACGGTCA,-0.12
19,GATGGCAA,0.014
20,GGACGGAC,-0.238
21,AGTCCTTG,-0.239
22,CGCCGCTA,-0.329
23,AGTGCCCA,-0.208
24,TAAAGCTA,0.0118
25,ATCGTATC,0.122

row,Sequence,PBM E-score
1,GCAAGAAA,0.0512
2,CCGAGACG,-0.0736
3,CGCAAGAA,0.0538
4,AACTGCCG,-0.0532
5,AATACCGG,0.00982
6,ATCGTCAG,0.263
7,ATCACTGA,-0.0268
8,CTACTGCA,-0.0311
9,CAGTCAGG,-0.0033
10,CGCCTGTC,-0.264
11,GAAATATA,0.24
12,CAAGAGAG,-0.143
13,TAGATACA,0.197
14,AAGGCGTC,0.0251
15,GTCGAGGA,-0.0503
16,ACCATGCC,-0.178
17,AACCACAG,-0.126
18,CAGGCCGG,-0.367
19,GCCGTACC,-0.175
